Hit rate of the full screen: of about 150,000 compounds, about 540 (0.36%) showed an effect of 50% or more. The list shows a part of the results.

In the experiment the test system is Plasmodium falciparum. The experiment can be described thus: Primary screen in NF54 nanoGlo assay, in single point, at 2uM, 72h; a lower Z score goes with more inhibition. Type of experiment: functional, Erythrocyte. The following applies: timepoint 72 hour.
Take `COc1ccc(Cl)cc1-c1ncc(C)c(N(C)C)n1`: the “% Inhibition” value is listed as -8% and the Z score is reported as 1.25.

Consider `Cc1nc(CCn2cc(C[C@H](C)c3ccccc3)nn2)no1`, for which the “% Inhibition” value was found to be 4% and the Z score was -0.48.

Turning to `Cc1ccc(N2N=C(C(=O)O)S(=O)(=O)c3cc(F)ccc32)cc1`, the “% Inhibition” value was -7% and the Z score is 0.78.

For `Cc1ccccc1NC(=O)Nc1ccc(N2CCN(C(=O)C3c4ccccc4Oc4ccccc43)CC2)cc1`, the “% Inhibition” value is 3% and the Z score is -0.48.

Regarding `Cc1ccc(S(=O)(=O)N2CCN(C(=O)CN3CCOCC3)CC2)c(Cl)c1`, the “% Inhibition” value is on record as -5% and the Z score is 0.93.

On to `O=C(c1n[nH]c2ccccc12)N1C[C@@H]2CC[C@H]1CN(C1CCOCC1)C2`, for which the “% Inhibition” value was -4% and the Z score amounted to 0.63.

In the case of `CO[C@H]1CCN(C(=O)c2cnc3ccccc3n2)CC1(C)C`, the “% Inhibition” value was -2% and the Z score is recorded as 0.33.

Take `N[C@H]1CCOc2ccc(Br)cc2C1=O`: the “% Inhibition” value is on record as -8% and the Z score was found to be 1.05.

In the case of `CO[C@@]12CC[C@H](O)C[C@@H]1N(Cc1cnc(-c3ccccc3C)s1)CC2`, the “% Inhibition” value is -12% and the Z score stood at 1.56.

Consider `O=C(NCc1ccccc1)N1CCc2nc(N3CCCCC3)nc(Oc3cccc(F)c3)c2C1`, for which the “% Inhibition” value worked out at 2% and the Z score is -0.35.

In the case of `CN(CC1CCOC1)C(=O)NC(c1ccc(F)cc1)c1ccccn1` (stereo unspecified), the “% Inhibition” value was 5% and the Z score is given as -0.46.

Regarding `CCc1ccc(C(=O)NCCNc2cnccn2)o1`, the “% Inhibition” value was -16% and the Z score worked out at 1.55.

For `O=S1(=O)CCCN(CCOc2cc(Cl)cc(Cl)c2)CC1`, the “% Inhibition” value amounted to 4% and the Z score was -0.36.

With `CCOC1CC1C(=O)NC1(C#N)CCC(C(C)(C)C)CC1` (stereo unspecified), the “% Inhibition” value is listed as -12% and the Z score was determined as 2.

For `CCc1ccccc1NC(=O)Cn1nc2c3sc(N(C)C)nc3ncn2c1=O`, the “% Inhibition” value is -14% and the Z score was 1.37.

Take `NC(=O)C1(NCC(=O)NC2CCCCCCC2)CCCCC1`: the “% Inhibition” value is listed as -3% and the Z score amounted to 0.57.

Regarding `CN(C(=O)c1ccc2c(c1)OCO2)[C@H]1COC[C@@H]1O`, the “% Inhibition” value is on record as -2% and the Z score was determined as 0.47.

`Cc1ccc(-c2nc(C#N)c(N(Cc3ccc(F)cc3)Cc3ccco3)o2)cc1`: the “% Inhibition” value is given as -18% and the Z score turned out to be 2.25.

On to `CN(C)c1cnc(C(=O)N[C@H]2CCCc3cn[nH]c32)cn1`, for which the “% Inhibition” value is on record as -41% and the Z score was 4.81.

Consider `O=C(Cc1c[nH]c2ccccc12)NC(c1ccccn1)[C@H]1C[C@@H](O)C1` (stereo partly specified), for which the “% Inhibition” value is recorded as 0% and the Z score was determined as 0.07.

For `CCOc1ncc(NC(=O)Cc2ccc(Cl)cc2)c(OCC)n1`, the “% Inhibition” value is given as -10% and the Z score was determined as 1.9.

Regarding `Cc1ccccc1NC(=O)Cn1ccnc1-c1ccc(-c2cc[nH]n2)s1`, the “% Inhibition” value is on record as -13% and the Z score was 1.31.

`CC(C)C(=O)NCCN(C)C(=O)c1c(F)cc(F)cc1F`: the “% Inhibition” value is recorded as -7% and the Z score stood at 1.01.

In the case of `Cc1ccc2nc(-c3cccc(Cl)c3)c(NC(=O)C3CCC3)n2c1`, the “% Inhibition” value is given as 2% and the Z score is reported as -0.31.

For the compound `C[C@@H](CCC1CCCC1)NC(=O)NCc1ccon1`, the “% Inhibition” value is -6% and the Z score came out at 0.94.

With `c1ccc(-c2nn(-c3ccccc3)c3ccccc23)cc1`, the “% Inhibition” value is recorded as -14% and the Z score was determined as 1.59.

Take `Cc1cccc(CN2CCC(=O)N(CC3CCCCC3)CC2)n1`: the “% Inhibition” value is reported as -8% and the Z score is 1.13.

`c1ccc(CN2CCC(NC3CC4CCC3C4)CC2)cc1` (stereo unspecified): the “% Inhibition” value is given as 1% and the Z score is -0.2.

For the compound `C=C(C)CN1C[C@@H](O)Cc2ccccc21`, the “% Inhibition” value is given as -8% and the Z score is reported as 0.67.

For the compound `CN(Cc1cnc2ccccc2c1)c1cnn(C)c1`, the “% Inhibition” value stood at 1% and the Z score was -0.16.

As to `COC(=O)[C@H](C)N1CCC(C(F)(F)F)CC1`, the “% Inhibition” value is -10% and the Z score is 0.96.

With `C[C@@H](CN)CNC(=O)Cc1ccc(Cl)cc1Br`, the “% Inhibition” value is -12% and the Z score is on record as 1.64.

For the compound `Cc1nnc(CN(Cc2nnnn2C2CC2)C(C)(C)C)o1`, the “% Inhibition” value came to 7% and the Z score was -1.17.

In the case of `O=C(CN1C(c2ccc(Cl)cc2)=C[C@@H](c2ccccc2)n2nnnc21)N1CCN(c2ccccc2)CC1`, the “% Inhibition” value was -3% and the Z score was determined as 0.32.

Take `CCO[C@H]1CN(Cc2nc(-c3ccccc3)cs2)C[C@@H]1O`: the “% Inhibition” value is -14% and the Z score was 2.64.

Consider `CC1CCC(N(C)Cc2nnnn2C(C)C)CC1` (stereo unspecified), for which the “% Inhibition” value is recorded as -1% and the Z score amounted to 0.08.

For `C[C@@H](CNC(=O)Nc1nc(CS(C)(=O)=O)no1)c1ccc(F)cc1F`, the “% Inhibition” value is listed as -2% and the Z score was 0.45.

With `Cc1nnc(-c2cc(NC(=O)Cc3c[nH]c4ccccc34)c(C)s2)o1`, the “% Inhibition” value was -13% and the Z score is given as 1.26.

For `CCc1ccc(NC(=O)N2CCC[C@H](OC3CCC3)C2)cc1OC`, the “% Inhibition” value was 6% and the Z score is given as -0.56.

On to `O=C(NCc1cccs1)C1CCCC1`, for which the “% Inhibition” value was -3% and the Z score amounted to 0.29.

Turning to `O=C(Cn1nc2c3ccc(F)cc3ncn2c1=O)Nc1ccc(F)c(Cl)c1`, the “% Inhibition” value is listed as -2% and the Z score is 0.35.

As to `CCOc1ccc([C@H](C)NS(=O)(=O)c2ccc(-c3nc(CC)cs3)s2)cc1`, the “% Inhibition” value is reported as -1% and the Z score worked out at 0.11.

`OCCn1ccc([C@H]2CCCN(Cc3ccc4c(c3)OCCO4)C2)n1`: the “% Inhibition” value is -19% and the Z score was 1.71.

Values taken from ChEMBL document CHEMBL4888484, “Replenishing the malaria drug discovery pipeline: Screening and hit evaluation of the MMV Hit Generation Library 1 (HGL1) against asexual blood stage Plasmodium falciparum ,using a nano luciferase reporter read-out” (2022).
